Consider 41 molecules from ChEMBL document CHEMBL5308541, “MAIP: An Open-Source Tool to Enrich High-Throughput Screening Output and Identify Novel, Druglike Molecules with Antimalarial Activity” (ACS Med Chem Lett, 2023).

Broadly, the % Inhibition is the relative decrease from the control value, in per cent.

The campaign covered roughly 150,000 compounds. About 540 (0.36%) showed an effect of 50% or more. Some of the results follow.

For the experiment, the system named is Plasmodium falciparum. In words: Primary screen in NF54 nanoGlo assay, in single point, at 2uM, 72h; a lower Z score goes with more inhibition. The class given is functional, Erythrocyte. To be noted: timepoint 72 hour.
Turning to `O=C(Cc1ccc(N2CCC(N3CCC([C@H](O)c4ccccc4)CC3)CC2)cc1)N1CCCC1`, the “% Inhibition” value is -1% and the Z score is listed as 0.19.
For `O=C(CO)Nc1cccc(Nc2ncnc3cc(F)c(F)cc23)c1`, in that order: 2% and -0.52.
With `Clc1ccc2[nH]c3c(c2c1)CCCC3NC1CCN(C2CCOC2)CC1` (configuration not stated), the “% Inhibition” value amounted to 83% and the Z score is -16.55.
For `CN(CC(=O)N1CCc2c(c(C(N)=O)nn2C)C1)Cc1ccccc1F`, in that order: -12% and 2.08.
Regarding `CN(C)[C@H]1CCN(C(=O)c2cccc(-c3[nH]cnc3-c3ccccc3)c2)C1`, the “% Inhibition” value is -11% and the Z score is given as 1.86.
For `CCn1cc(-c2ccc(C(=O)N3CCC[C@H](CN4CCOCC4)C3)cc2)cn1`, in that order: -11% and 2.
The corresponding values for `CC(C)COc1cncc(NCc2ccccc2-c2cnn(C)c2)n1` are -2% and 0.36.
The corresponding values for `Oc1cccc([C@@H]2CN(Cc3cnns3)CCO2)c1` are 1% and -0.12.
For `c1cncc(-c2cccc(CN(c3ncnc4nc[nH]c34)C3CC3)c2)c1`, the “% Inhibition” value is -2% and the Z score stood at 0.35.
The corresponding values for `CN(Cc1cc2cc(F)ccc2[nH]1)C(=O)[C@@H]1CC2(CCNCC2)CN1` are 1% and -0.17.
The corresponding values for `COc1cc(NC(=O)N2CCOC[C@@H](CO)C2)cc(-n2nnnc2C)c1` are -3% and 0.58.
Turning to `Nc1nc(-c2c[nH]c3ncc(Br)cc23)cs1`, the “% Inhibition” value was -3% and the Z score was determined as 0.56.
For `O=C(NC1CC1)[C@H]1CCCN(C2CCN(c3ncc(F)cn3)CC2)C1`, in that order: 2% and -0.41.
For `C[C@H]1CCCN(CCNC(=O)c2ccc(-c3ccc4c(=O)[nH]ccc4c3)cc2)C1`, the “% Inhibition” value is on record as 67% and the Z score was -11.64.
For `CC[C@@H]1C[C@H]1NS(=O)(=O)c1cnn2ncccc12`, in that order: -4% and 0.73.
For `COc1cccc(-c2cccc(CN3CCC4(O)CCNCC4C3)c2)c1` (configuration not stated), in that order: 22% and -3.8.
The corresponding values for `Fc1ccc(OCCN2CCC(Nc3cc(-n4ccnc4)ncn3)CC2)cc1` are 6% and -0.97.
Take `CCc1cc(N2CCN(C(=O)NC3CCN(C4CCCC4)CC3)CC2)ncn1`: the “% Inhibition” value is -4% and the Z score was found to be 0.56.
For `CCN1CCC[C@@H]1CNC(=O)CCC1CCN(C(=O)c2ccc[nH]2)CC1`, in that order: 8% and -1.39.
For the molecule `Cc1nc(Nc2cnn(CC(=O)NC3CCCC3)c2)c2cc[nH]c2n1`, the “% Inhibition” value is listed as -4% and the Z score amounted to 0.84.
The corresponding values for `CCc1nc(N)nc(NCCCn2cnnc2)c1C` are -4% and 0.95.
For `c1cc(NCc2ccc3ncccc3c2)cc(N2CCN(CC3CC3)CC2)c1`, in that order: 1% and -0.18.
The corresponding values for `Cc1csc2ncnc(NCc3cccc(-n4cncn4)c3)c12` are -14% and 2.54.
As to `NC(=O)c1cc(-c2csc(Nc3ncnc4ccccc34)n2)c[nH]1`, the “% Inhibition” value was determined as 0% and the Z score was -0.01.
As for `COc1ccc2oc(C(=O)Nc3ccc(Oc4cccc5[nH]ccc45)nc3)c(C)c2c1`, the “% Inhibition” value was 0% and the Z score is -0.05.
Consider `CCc1ccc(Nc2nc(C(=O)NCCc3c[nH]cn3)nc3ccccc23)cc1`, for which the “% Inhibition” value is on record as 7% and the Z score is -1.15.
The corresponding values for `Cc1ccnc(NCCNc2nccc(C(C)C)n2)c1` are 1% and -0.2.
The corresponding values for `COCCN(CC1CCN(Cc2ccccc2F)CC1)C(=O)c1ccnc2ccc(C)cc12` are -4% and 0.66.
The corresponding values for `COc1ccc2nc(NC3CCN(C)CC3)c(C)nc2c1` are -6% and 0.9.
With `Cn1cc([C@@H](Nc2nc3c(c(=O)[nH]c(=O)n3C)n2C)C(C)(C)C)cn1`, the “% Inhibition” value was -9% and the Z score stood at 1.38.
The corresponding values for `Cn1cc(-c2ccc3c(c2)NC(=O)CN2CCN(C(=O)NC4CCCC4)C[C@H]2CO3)cn1` are -4% and 0.56.
With `O=C(NC1CCOC1)OCC1CCCCN1CCN1CCCCC1` (configuration not stated), the “% Inhibition” value was 2% and the Z score is listed as -0.4.
For `CC(C)c1csc(NC(=O)N2C[C@@H]3CCC[C@@]3(C(=O)O)C2)n1`, in that order: -9% and 1.54.
For `c1ccc(-c2nc3c(c(NC4CCOCC4)n2)CCNCC3)cc1`, in that order: 3% and -0.49.
Turning to `Cc1cc(N[C@@H](C)C2CCN(C)CC2)nc(N(C)C)n1`, the “% Inhibition” value was determined as 5% and the Z score is recorded as -1.08.
The corresponding values for `COc1cc2nc(-c3ccc([C@H](C)N4CCCC4)cc3)nc(N)c2cc1OC` are 12% and -1.81.
As for `Cc1cccc(NC2CCN(c3ncnc4nc(N)ccc34)CC2)n1`, the “% Inhibition” value was -5% and the Z score is given as 0.79.
`CCN1CCN(c2ccc(F)cc2C(C)NCC2CCCOC2)CC1` (configuration not stated): the “% Inhibition” value is reported as 3% and the Z score is -0.68.
As for `Cc1nnc(Cn2nc(C)sc2=O)s1`, the “% Inhibition” value came to 8% and the Z score was -1.42.
The corresponding values for `c1cncc([C@H](CNC2CCN(Cc3ccco3)CC2)N2CCCCC2)c1` are 2% and -0.39.
Regarding `CC(C)c1cc(CNc2ncnc3sccc23)on1`, the “% Inhibition” value is given as -2% and the Z score stood at 0.39.
